Experimental findings from the antibiotic and cytotoxicity screens of Wong et al. (2023) are described below.

The list shows a part of the results.

The test system of test [1] is HSkMC (human skeletal muscle cells). Briefly: cytotoxicity call (relative viability < 0.9). The following applies: 10 µM.
In test [2] the test system is HepG2. The test can be described thus: cytotoxicity call (relative viability < 0.9). The following applies: 10 µM.
For test [3], the system named is S. aureus RN4220. The test can be described thus: growth inhibition call (relative growth <= 0.2). The following applies: 50 µM.

For the molecule `COc1ccc(NC(=O)Nc2ccc3c(c2)CC(=O)N([C@@H](C)CO)C[C@H](C)[C@@H](CN(C)S(=O)(=O)c2c(C)noc2C)O3)cc1`, the cytotoxicity call in test [1] and in test [2] was “inactive” throughout. The growth inhibition call in test [3] was “inactive”.

For the molecule `COC(=O)c1c2oc(c1C(=O)OC)C(=O)N[C@@H](Cc1ccccc1)Cn1cc(nn1)[C@@H](Cc1ccccc1)NC(=O)N[C@H](COC(=O)NCCCCCC(=O)NO)CC2`, the cytotoxicity call in test [1] and in test [2] was “inactive” in each case. Moreover, in test [3], the growth inhibition call is “inactive”.

In the case of `Cc1ccc(S(=O)(=O)N(C)C[C@H]2OCCCC[C@H](C)Oc3ccc(NS(C)(=O)=O)cc3C(=O)N([C@H](C)CO)C[C@@H]2C)cc1`, the cytotoxicity call in test [1] and in test [2] was “inactive” each time. Further, the growth inhibition call in test [3] is “inactive”.

Take `CN(Cc1ccccc1)C[C@H]1C[C@H](c2ccccc2)O[C@H](c2ccc(NC(=O)CCCCCCC(=O)O)cc2)O1`: the cytotoxicity call in test [1] and in test [2] was “inactive” throughout. In addition, the growth inhibition call in test [3] is “inactive”.

For the molecule `COc1ccc(C#Cc2ccc3c(c2)[C@]2(C(=O)N3)[C@H](C(=O)N3CCc4cc(OC)c(OC)cc4C3)[C@H]3C(=O)O[C@H](c4ccccc4)[C@H](c4ccccc4)N3[C@@H]2c2ccccc2OCCO)cc1`, the cytotoxicity call in test [1] and in test [2] was “inactive” in each case. Moreover, the growth inhibition call in test [3] was “inactive”.

Turning to `C[C@@H](N)CCP(=O)(O)O`, the cytotoxicity call in test [1] and in test [2] was “inactive” each time. For the same molecule, the growth inhibition call in test [3] is “inactive”.

On to `NC[C@H]1O[C@H](O[C@H]2[C@H](O)[C@@H](O[C@H]3O[C@H](CO)[C@@H](O)[C@H](N)[C@H]3O)[C@H](N)C[C@@H]2N)[C@H](N)[C@@H](O)[C@@H]1O`, for which the cytotoxicity call in test [1] and in test [2] was “inactive” in each case. For the same molecule, the growth inhibition call in test [3] is “inactive”.

In the case of `C[C@@H]1CN([C@H](C)CO)C(=O)c2c(c3ccccc3n2C)-c2ccccc2CO[C@H]1CN(C)Cc1cccc(C(F)(F)F)c1`, the cytotoxicity call in test [1] and in test [2] was “inactive” throughout. In addition, the growth inhibition call in test [3] is “inactive”.

With `Cc1noc(C)c1NC(=O)Nc1cccc2c1O[C@H](CN(C)C(=O)Nc1ccc(C(F)(F)F)cc1)[C@@H](C)CN([C@H](C)CO)C2=O`, the cytotoxicity call in test [1] and in test [2] was “inactive” each time. Further, the growth inhibition call in test [3] was “inactive”.

Regarding `C[C@@H]1CN([C@H](C)CO)S(=O)(=O)c2ccc(C#C[C@@H](C)O)cc2O[C@H]1CN(C)C(=O)C1CCCCC1`, the cytotoxicity call in test [1] and in test [2] was “inactive” each time. The growth inhibition call in test [3] is “inactive”.

On to `O=C([C@H]1[C@H](CO)[C@H]2Cn3c(cccc3=O)[C@H]2N1CC1CCCC1)N1CCOCC1`, for which the cytotoxicity call in test [1] and in test [2] was “inactive” each time. In addition, the growth inhibition call in test [3] is “inactive”.

For `C[C@@H]1CN([C@H](C)CO)C(=O)c2cc(NS(=O)(=O)c3cn(C)cn3)ccc2O[C@H]1CN(C)S(=O)(=O)c1ccccc1`, the cytotoxicity call in test [1] and in test [2] was “inactive” throughout. Besides, the growth inhibition call in test [3] is “inactive”.

For `COC(=O)C1=C(N)N(c2cccc(C(F)(F)F)c2)C2=C(C(=O)CC(C)(C)C2)[C@@H]1c1ccc(OC)cc1`, the cytotoxicity call in test [1] and in test [2] was “inactive” in each case. For the same molecule, the growth inhibition call in test [3] is “inactive”.

As for `COc1ccc(NC(=O)Nc2ccc3c(c2)C(=O)N([C@@H](C)CO)C[C@@H](C)[C@@H](CN(C)C(=O)Nc2ccccc2)OCCCC[C@H](C)O3)cc1`, the cytotoxicity call in test [1] and in test [2] was “inactive” in each case. Also, the growth inhibition call in test [3] is “inactive”.

Regarding `O=C(C[C@H]1C[C@H]2c3cc(NC(=O)c4ccc5c(c4)OCO5)ccc3O[C@H]2[C@H](CO)O1)NCC(F)(F)F`, the cytotoxicity call in test [1] and in test [2] was “inactive” throughout. Also, the growth inhibition call in test [3] is “inactive”.

As for `O=C(NCCO)C(=O)NCc1ccco1`, the cytotoxicity call in test [1] and in test [2] was “inactive” in each case. For the same molecule, the growth inhibition call in test [3] was “inactive”.

With `C[C@@H]1CN([C@H](C)CO)C(=O)c2cc(NC(=O)CCCCCC(=O)Nc3ccccc3N)ccc2O[C@H]1CN(C)C(=O)Nc1ccc(F)cc1`, the cytotoxicity call in test [1] and in test [2] was “inactive” in each case. In addition, the growth inhibition call in test [3] was “inactive”.

With `COc1ccc2c3c([nH]c2c1)[C@@H](CO)N(C[C@]13CCN(CC1)CC1CCCC1)C(=O)Nc1cccc(c1)F`, the cytotoxicity call in test [1] was “inactive”. Besides, the cytotoxicity call in test [2] was “active”. The growth inhibition call in test [3] is “inactive”.

Take `C[C@@H]1CN([C@@H](C)CO)C(=O)Cc2cc(NC(=O)C3CCCCC3)ccc2O[C@@H]1CN(C)C(=O)Nc1ccc(C(F)(F)F)cc1`: the cytotoxicity call in test [1] and in test [2] was “inactive” in each case. In addition, in test [3], the growth inhibition call was “inactive”.

For the molecule `COc1ccc(S(=O)(=O)N(C)C[C@H]2Oc3c(NC(=O)NC(C)C)cccc3C(=O)N([C@@H](C)CO)C[C@@H]2C)cc1`, the cytotoxicity call in test [1] and in test [2] was “inactive” throughout. For the same molecule, the growth inhibition call in test [3] is “inactive”.

`C[C@@H]1CN([C@@H](C)CO)C(=O)Cc2cc(NS(=O)(=O)c3ccccc3)ccc2O[C@@H]1CN(C)Cc1ccc(Cl)c(Cl)c1`: the cytotoxicity call in test [1] and in test [2] was “active” throughout. The growth inhibition call in test [3] was “inactive”.

As for `Cc1noc(C)c1S(=O)(=O)Nc1cccc2c1O[C@H](CN(C)S(=O)(=O)c1cccs1)[C@H](C)CN([C@H](C)CO)C2=O`, the cytotoxicity call in test [1] and in test [2] was “inactive” throughout. For the same molecule, the growth inhibition call in test [3] was “inactive”.

Consider `C=CCOC(=O)[C@H]1[C@@H]2C(=O)O[C@@H](c3ccccc3)[C@@H](c3ccccc3)N2[C@@H](c2ccc(OCCOC(=O)[C@H]3C[C@H]4C(=O)NCC(=O)N4[C@H]3c3ccc(O)cc3)cc2)[C@]12C(=O)Nc1ccc(I)cc12`, for which the cytotoxicity call in test [1] and in test [2] was “inactive” in each case. Further, the growth inhibition call in test [3] is “inactive”.

With `C[C@@H](NCCC(c1ccccc1)c1ccccc1)c1ccccc1`, the cytotoxicity call in test [1] is “inactive”. The cytotoxicity call in test [2] is “active”. In test [3], the growth inhibition call is “inactive”.

As for `CC(=O)Oc1ccc(O)cc1`, in test [1], the cytotoxicity call was “inactive”. For the same molecule, the cytotoxicity call in test [2] is “active”. In test [3], the growth inhibition call is “inactive”.

Regarding `Cc1c(NC(=O)c2cccnc2)c(=O)n(-c2ccccc2)n1C`, the cytotoxicity call in test [1] and in test [2] was “inactive” each time. Moreover, the growth inhibition call in test [3] is “inactive”.
